± gives the standard deviation of the averaged measurements. Over roughly 2,900 compounds, “NF-kB SEAP reporter activity, fold change vs agonist alone” has its median near 0.99; the highest 2% begin near 2.6. Some of the results follow.
Tests used:
RAW-Dual [1] = experiment: NF-kB SEAP reporter activity, fold change vs agonist alone; cytotoxicity flag (confluency mask): not cytotoxic; higher = enhanced NF-kB activity
Summary of the method: (§1)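 Cytotoxic wells were those whose IncuCyte confluency was below 70% of agonist controls in both mask sets. The cells were RAW-Dual macrophages at 50,000 cells/well in DMEM on 384-well plates, dosed with 50 nL of library stock by pin tool, stimulated with a PRR agonist 1 h later, and kept at 37 °C, 5% CO2 for 20 hours. IRF and NF-κB reporter activity, as fold change over agonist-alone wells, came from supernatant read by QuantiLuc luminescence and QuantiBlue absorbance, respectively.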

RAW-Dual [2] = experiment: NF-kB SEAP reporter activity, fold change vs agonist alone; higher = enhanced NF-kB activity; conditions: library stock concentration (final ~1000-fold dilution): 10 mM
Summary of the method: as §1

RAW-Dual [3] = experiment: NF-kB SEAP reporter activity, fold change vs agonist alone; cytotoxicity flag (confluency mask): cytotoxic (confluency <70% of control); higher = enhanced NF-kB activity
Summary of the method: as §1

[4] = agonist: ODN 1826 (TLR9) 0.5 ug/mL
[5] = agonist: Pam2CSK4 (TLR2/6) 0.1 ug/mL
[6] = agonist: Pam3CSK4 (TLR2/1) 0.1 ug/mL
[7] = cytotoxicity flag (confluency mask): not cytotoxic, agonist: Imiquimod (TLR7) […]
[8] = cytotoxicity flag (confluency mask): not cytotoxic, agonist: MPLA (TLR4) […]
[9] = cytotoxicity flag (confluency mask): cytotoxic (confluency <70% of control), agonist: Imiquimod (TLR7) […]
[10] = cytotoxicity flag (confluency mask): cytotoxic (confluency <70% of control), agonist: MPLA (TLR4) […]

With `Cl.O=c1[nH]c(C2CCCN2)nc2c1oc1ccc(Cl)cc12` (stereo not given) (library stock concentration (final ~1000-fold dilution): 10 mM water) the “NF-kB SEAP reporter activity” value (RAW-Dual [1]; agonist: LPS (TLR4) 0.1 ug/mL) was 0.991, the “NF-kB SEAP reporter activity” value (RAW-Dual [1]; [4]) was 1.08 and the “NF-kB SEAP reporter activity” value (RAW-Dual [1]; [5]) was 0.849. The “NF-kB SEAP reporter activity” value (RAW-Dual [1]; [6]) was 1.13.

In the case of `O=C(/C=C/c1ccc(O)c(O)c1)OC(Cc1ccc(O)c(O)c1)C(=O)O` (stereo not given) (library stock concentration (final ~1000-fold dilution): 10 mM), the “NF-kB SEAP reporter activity” value (RAW-Dual [1]; agonist: LPS (TLR4) 0.1 ug/mL) is reported as 1.14 ± 0.28, the “NF-kB SEAP reporter activity” value (RAW-Dual [1]; [4]) is reported as 0.7158 ± 0.0053 and the “NF-kB SEAP reporter activity” value (RAW-Dual [1]; [5]) is reported as 1.04 ± 0.16. For the same compound, the “NF-kB SEAP reporter activity” value (RAW-Dual [1]; [6]) was 0.763 ± 0.084.

`O=C(/C=C/c1ccc(O)c(O)c1)OC(Cc1ccc(O)c(O)c1)C(=O)O` (stereo not given) was tested, and the “NF-kB SEAP reporter activity” value (RAW-Dual [2]; [7]) was 0.709 ± 0.063 and the “NF-kB SEAP reporter activity” value (RAW-Dual [2]; [8]) was 1.15 ± 0.32.

`O=C(Nc1ccccc1)Nc1ccc(-c2ccc(C(=O)C3CCCC3C(=O)O)cc2)cc1` (stereo not given) was tested, and the “NF-kB SEAP reporter activity” value (RAW-Dual [2]; [7]) was 0.86 and the “NF-kB SEAP reporter activity” value (RAW-Dual [2]; [8]) was 0.711.

`O=C(Nc1ccccc1)Nc1ccc(-c2ccc(C(=O)C3CCCC3C(=O)O)cc2)cc1` (stereo not given) (library stock concentration (final ~1000-fold dilution): 10 mM) was tested, and the “NF-kB SEAP reporter activity” value (RAW-Dual [1]; agonist: LPS (TLR4) 0.1 ug/mL) was 1.38, the “NF-kB SEAP reporter activity” value (RAW-Dual [1]; [4]) was 1.09 and the “NF-kB SEAP reporter activity” value (RAW-Dual [1]; [5]) was 1.02. For the same compound, the “NF-kB SEAP reporter activity” value (RAW-Dual [1]; [6]) was 0.971.

With `COc1cc2c(NC3CCN(C(C)C)CC3)nc(C3CCCCC3)nc2cc1OCCCN1CCCC1` the “NF-kB SEAP reporter activity” value (RAW-Dual [2]; [9]) was 0.228 and the “NF-kB SEAP reporter activity” value (RAW-Dual [2]; [10]) was 0.382.

In the case of `COc1cc2c(NC3CCN(C(C)C)CC3)nc(C3CCCCC3)nc2cc1OCCCN1CCCC1` (library stock concentration (final ~1000-fold dilution): 10 mM), the “NF-kB SEAP reporter activity” value (RAW-Dual [3]; agonist: LPS (TLR4) 0.1 ug/mL) is reported as 0.43, the “NF-kB SEAP reporter activity” value (RAW-Dual [3]; [4]) is reported as 0.278 and the “NF-kB SEAP reporter activity” value (RAW-Dual [3]; [5]) is reported as 0.0813. The “NF-kB SEAP reporter activity” value (RAW-Dual [3]; [6]) was 0.253.

With `O=c1[nH]nc2c3c(cccc13)N=C(CN1Cc3ccccc3C1)N2` the “NF-kB SEAP reporter activity” value (RAW-Dual [2]; [7]) was 0.878 and the “NF-kB SEAP reporter activity” value (RAW-Dual [2]; [8]) was 1.08.

With `O=c1[nH]nc2c3c(cccc13)N=C(CN1Cc3ccccc3C1)N2` (library stock concentration (final ~1000-fold dilution): 10 mM) the “NF-kB SEAP reporter activity” value (RAW-Dual [1]; agonist: LPS (TLR4) 0.1 ug/mL) was 1.02, the “NF-kB SEAP reporter activity” value (RAW-Dual [1]; [4]) was 1.13 and the “NF-kB SEAP reporter activity” value (RAW-Dual [1]; [5]) was 0.792. For the same compound, the “NF-kB SEAP reporter activity” value (RAW-Dual [1]; [6]) was 1.1.

For `C#Cc1cccc(Nc2ncnc3cc(OC)c(OCCCCCCC(=O)NO)cc23)c1` (library stock concentration (final ~1000-fold dilution): 10 mM), the “NF-kB SEAP reporter activity” value (RAW-Dual [3]; agonist: LPS (TLR4) 0.1 ug/mL) was 7.09, the “NF-kB SEAP reporter activity” value (RAW-Dual [3]; [4]) was 1.67 and the “NF-kB SEAP reporter activity” value (RAW-Dual [3]; [5]) was 0.682. The “NF-kB SEAP reporter activity” value (RAW-Dual [3]; [6]) was 1.41.

For `C#Cc1cccc(Nc2ncnc3cc(OC)c(OCCCCCCC(=O)NO)cc23)c1`, the “NF-kB SEAP reporter activity” value (RAW-Dual [2]; [9]) was 1.4 and the “NF-kB SEAP reporter activity” value (RAW-Dual [2]; [10]) was 1.87.

For `O=S(=O)(c1ccc2c(c1)C(=NO)c1cc(S(=O)(=O)N3CCCCC3)ccc1-2)N1CCCCC1` (library stock concentration (final ~1000-fold dilution): 10 mM), the “NF-kB SEAP reporter activity” value (RAW-Dual [1]; agonist: LPS (TLR4) 0.1 ug/mL) was 1.12, the “NF-kB SEAP reporter activity” value (RAW-Dual [1]; [4]) was 1.14 and the “NF-kB SEAP reporter activity” value (RAW-Dual [1]; [5]) was 0.268. The “NF-kB SEAP reporter activity” value (RAW-Dual [1]; [6]) was 0.797.

With `O=S(=O)(c1ccc2c(c1)C(=NO)c1cc(S(=O)(=O)N3CCCCC3)ccc1-2)N1CCCCC1` the “NF-kB SEAP reporter activity” value (RAW-Dual [2]; [7]) was 1.43 and the “NF-kB SEAP reporter activity” value (RAW-Dual [2]; [8]) was 1.9.

`CCn1c2ccccc2c2cc(-n3nncc3-c3ccccc3)ccc21` (library stock concentration (final ~1000-fold dilution): 10 mM) was tested, and the “NF-kB SEAP reporter activity” value (RAW-Dual [1]; agonist: LPS (TLR4) 0.1 ug/mL) was 3.15, the “NF-kB SEAP reporter activity” value (RAW-Dual [1]; [4]) was 1.82 and the “NF-kB SEAP reporter activity” value (RAW-Dual [1]; [5]) was 1.81. For the same compound, the “NF-kB SEAP reporter activity” value (RAW-Dual [1]; [6]) was 2.79.

In the case of `CCn1c2ccccc2c2cc(-n3nncc3-c3ccccc3)ccc21`, the “NF-kB SEAP reporter activity” value (RAW-Dual [2]; [7]) is reported as 1.66 and the “NF-kB SEAP reporter activity” value (RAW-Dual [2]; [8]) is reported as 2.14.

In the case of `COc1cccc2c1c(O)c(C(=O)N(C)c1ccc(C(F)(F)F)cc1)c(=O)n2C`, the “NF-kB SEAP reporter activity” value (RAW-Dual [2]; [7]) is reported as 0.954 and the “NF-kB SEAP reporter activity” value (RAW-Dual [2]; [8]) is reported as 1.07.

`COc1cccc2c1c(O)c(C(=O)N(C)c1ccc(C(F)(F)F)cc1)c(=O)n2C` (library stock concentration (final ~1000-fold dilution): 10 mM) was tested, and the “NF-kB SEAP reporter activity” value (RAW-Dual [1]; agonist: LPS (TLR4) 0.1 ug/mL) was 1.07, the “NF-kB SEAP reporter activity” value (RAW-Dual [1]; [4]) was 1.03 and the “NF-kB SEAP reporter activity” value (RAW-Dual [1]; [5]) was 1.16. The “NF-kB SEAP reporter activity” value (RAW-Dual [1]; [6]) was 0.893.

`CC(C)c1nc(N(C)S(C)(=O)=O)nc(-c2ccc(F)cc2)c1C=CC(O)CC(O)CC(=O)O` (stereo not given) (library stock concentration (final ~1000-fold dilution): 10 mM) was tested, and the “NF-kB SEAP reporter activity” value (RAW-Dual [1]; agonist: LPS (TLR4) 0.1 ug/mL) was 1.43, the “NF-kB SEAP reporter activity” value (RAW-Dual [1]; [4]) was 1.24 and the “NF-kB SEAP reporter activity” value (RAW-Dual [1]; [5]) was 1.01. For the same compound, the “NF-kB SEAP reporter activity” value (RAW-Dual [1]; [6]) was 1.2.

In the case of `CC(C)c1nc(N(C)S(C)(=O)=O)nc(-c2ccc(F)cc2)c1C=CC(O)CC(O)CC(=O)O` (stereo not given), the “NF-kB SEAP reporter activity” value (RAW-Dual [2]; [7]) is reported as 0.909 and the “NF-kB SEAP reporter activity” value (RAW-Dual [2]; [8]) is reported as 1.05.

For `Cl.NCCNC(=O)c1ccc(Cl)cn1` (library stock concentration (final ~1000-fold dilution): 10 mM), the “NF-kB SEAP reporter activity” value (RAW-Dual [1]; agonist: LPS (TLR4) 0.1 ug/mL) was 0.986, the “NF-kB SEAP reporter activity” value (RAW-Dual [1]; [4]) was 0.925 and the “NF-kB SEAP reporter activity” value (RAW-Dual [1]; [5]) was 1.04. The “NF-kB SEAP reporter activity” value (RAW-Dual [1]; [6]) was 1.05.

For `Cl.NCCNC(=O)c1ccc(Cl)cn1`, the “NF-kB SEAP reporter activity” value (RAW-Dual [2]; [7]) was 0.893 and the “NF-kB SEAP reporter activity” value (RAW-Dual [2]; [8]) was 1.09.

For `Cc1cc(-c2ccc(N=Nc3ccc4c(S(=O)(=O)O)cc(S(=O)(=O)O)c(N)c4c3O)c(C)c2)ccc1N=Nc1ccc2c(S(=O)(=O)O)cc(S(=O)(=O)O)c(N)c2c1O`, the “NF-kB SEAP reporter activity” value (RAW-Dual [2]; [8]) was 1.21.

For `Cc1cc(-c2ccc(N=Nc3ccc4c(S(=O)(=O)O)cc(S(=O)(=O)O)c(N)c4c3O)c(C)c2)ccc1N=Nc1ccc2c(S(=O)(=O)O)cc(S(=O)(=O)O)c(N)c2c1O` (library stock concentration (final ~1000-fold dilution): 10 mM), the “NF-kB SEAP reporter activity” value (RAW-Dual [1]; agonist: LPS (TLR4) 0.1 ug/mL) was 1.63, the “NF-kB SEAP reporter activity” value (RAW-Dual [1]; [4]) was 0.873 and the “NF-kB SEAP reporter activity” value (RAW-Dual [1]; [5]) was 1.45. For the same compound, the “NF-kB SEAP reporter activity” value (RAW-Dual [1]; [6]) was 0.319.

With `Cn1cc(-c2cc3c(-c4ccc(CNC(=O)c5noc(C(C)(C)C)n5)c(F)c4)ncnc3[nH]2)cn1` (library stock concentration (final ~1000-fold dilution): 10 mM) the “NF-kB SEAP reporter activity” value (RAW-Dual [1]; agonist: LPS (TLR4) 0.1 ug/mL) was 1.94, the “NF-kB SEAP reporter activity” value (RAW-Dual [1]; [4]) was 1.58 and the “NF-kB SEAP reporter activity” value (RAW-Dual [1]; [5]) was 0.726. The “NF-kB SEAP reporter activity” value (RAW-Dual [1]; [6]) was 1.37.

In the case of `Cn1cc(-c2cc3c(-c4ccc(CNC(=O)c5noc(C(C)(C)C)n5)c(F)c4)ncnc3[nH]2)cn1`, the “NF-kB SEAP reporter activity” value (RAW-Dual [2]; [7]) is reported as 1.51 and the “NF-kB SEAP reporter activity” value (RAW-Dual [2]; [8]) is reported as 1.9.

Source: the supplement of paper PMC10037445
